Where two headings read alike, the source gives them in different places. The name of at least one read-out is uncertain.
How the values were obtained:
[1] = system: promoter of yeast gene YKL071w; assay type: cell-based, Saccharomyces cerevisiae W303
Excerpt: (§1) The inventors of the present application understood that the induction of certain yeast genes by toxic substances is caused by the activation of the promoters of the genes by the toxic substances. Thus, the inventors prepared a vector that comprised a polynucleotide sequence comprising the promoter of the yeast gene, which sequence is operably linked to a polynucleotide encoding a marker protein; and transformed yeast cells with the vector. […] The working examples hereinafter illustrate the preparation of such vectors, transformation of yeast cells by use of said vectors, and the detection of toxic substances by use of the transformed cells.
(§2) Promoter assay is a method for determining variations of the level of intracellular genes without destroying cells on the basis of the level of expressed marker genes instead of the expressed mRNA. The gene selected to detect a chemical substance is expressed in the absence of chemical substances, and thus a marker protein also occurs in the absence of chemical substances. In the method according to the present invention, the behavior of yeast genes on the addition of test materials is determined on the basis of the level of expressed marker protein so that the presence or the absence, and the kind of toxic chemical substances are predicted. Thus, it is desired that the production of marker proteins is lower in the absence of chemical substances, and the production of marker proteins is higher in the presence of chemical substances.
(§3) Type YEp shuttle vector pYES2 (pYES2, Cat no: V825-20, Invirtogen Corporation, USA), which can be replicated both in E. coli. and yeast was used as vector (R. W. Old, S. B. Primrose Principles of Gene Manipulation 5th Ed., BAIFUKAN CO., LTD, pp138-165, pp.234-263, 2000). The portion of vector pQBI 63 (Cat no.54-0082, Wako Pure Chemical Industries, Ltd.) corresponding to a marker protein GFP was used as the polynucleotide encoding GFP (SEQ ID No: 6). First, the GFP polynucleotide was inserted into the multiple cloning sites of pYES2 to give a vector. Thereafter, the GAL1 promoter of pYES2 was replaced with the polynucleotide comprising the promoter sequence of the intended yeast gene YKL071w (SEQ ID No: 1) to give an intended plasmid vector. Suitable restriction enzymes were selected, and the insertion of the polynucleotide comprising GFP and the promoter sequence was conducted.
(§4) Next, the yeast Saccharomyces cerevisiae W303 was transformed with the resultant plasmid vector according to the following procedures: • 1) Incubating the yeast Saccharomyces cerevisiae W303 in 200 ml of SD medium under shaking until OD 660 reaches 0.5; • 2) Suspending the collected cells in 5 ml of TE-buffer; • 3) Adding 250 μL of 2.5M lithium acetate; • 4) Dispending each 300 μl, adding 10 μl of above plasmid vector thereto, then incubating the suspensions at 30° C. for 30 minutes; • 5) Adding 700 μl of 50% PEG4000, and incubating the mixture under shaking at 30° C. for 60 minutes; • 6) Giving heat shock (42° C., 5 minutes), and then immediately cooling the mixture; • 7) Washing the mixture twice with 1M sorbitol; and • 8) Seeding it on agar plates made of minimum essential medium.
(§5) The cells of SC-YKL071W-pQBI as prepared in Example 2 were contacted to one of the following compounds. The yeast cells SC-YKL071W-pQBI were incubated at 25° C. in SD medium (Yeast nitrogen base without amino acids (Difco 0919-15)+glucose+amino acids (adenine, histidine, tryptophan)). One of toxic chemical substances as shown below was added to the cells at logarithmic growth phase, and then the cells were further incubated for two hours.

[2] = system: promoter of yeast gene YOR382w; assay type: cell-based, Saccharomyces cerevisiae W303
Excerpt: as §1, §2
as §3, with “YOR382w” for “YKL071w”, “3)” for “1)”
as §4
as §5, with “of SC-YOR382W-pQBI” for “of SC-YKL071W-pQBI”, “Example 4” for “Example 2”, “cells SC-YOR382W-pQBI” for “cells SC-YKL071W-pQBI”

[3] = SC-YKL071W-pQBI cells, 25° C., two hours, each substance at the concentration given
[4] = cells SC-YOR382W-pQBI, 2 hours incubation with the substance at the concentration printed in its row (column Concentrations), GFP fluorescence vs control without chemical

SMILES: C[S+](C)[O-] [(15), dimethylsulfoxide]
- Fluorescens [1, 3]: − (the number of the cells having a higher fluorescence than the control was under 1%)
- Fluorescence [2, 4]: ++ (2% or more)

SMILES: Oc1cc(Cl)ccc1Cl [2,5-dichlorophenol]
- Fluorescens [1, 3]: − (the number of the cells having a higher fluorescence than the control was under 1%)
- Fluorescence [2, 4]: ++ (2% or more)

SMILES: c1ccc2c(c1)cc1ccc3cccc4ccc2c1c34 [benzo(a)pyrene]
- Fluorescens [1, 3]: − (the number of the cells having a higher fluorescence than the control was under 1%)
- Fluorescence [2, 4]: − (the number of the cells having a higher fluorescence than the control was under 1%)

SMILES: CN(C)C(=S)SSC(=S)N(C)C [(10), Tetramethylthiuram disulfide]
- Fluorescens [1, 3]: + (between 1% and 2%)
- Fluorescence [2, 4]: − (the number of the cells having a higher fluorescence than the control was under 1%)

SMILES: Oc1cc(Cl)ccc1Oc1ccc(Cl)cc1Cl [triclosan]
- Fluorescens [1, 3]: − (the number of the cells having a higher fluorescence than the control was under 1%)
- Fluorescence [2, 4]: − (the number of the cells having a higher fluorescence than the control was under 1%)

SMILES: Oc1c(Cl)cc(Cl)c(Cl)c1Cc1c(O)c(Cl)cc(Cl)c1Cl [hexachlorophene]
- Fluorescens [1, 3]: − (the number of the cells having a higher fluorescence than the control was under 1%)
- Fluorescence [2, 4]: − (the number of the cells having a higher fluorescence than the control was under 1%)

SMILES: O=[N+]([O-])c1cc[n+]([O-])c2ccccc12 [(5), 4-nitroquinolin-N-oxide]
- Fluorescens [1, 3]: − (the number of the cells having a higher fluorescence than the control was under 1%)
- Fluorescence [2, 4]: ++ (2% or more)

SMILES: Oc1c(Cl)c(Cl)c(Cl)c(Cl)c1Cl [pentachlorophenol]
- Fluorescens [1, 3]: − (the number of the cells having a higher fluorescence than the control was under 1%)
- Fluorescence [2, 4]: − (the number of the cells having a higher fluorescence than the control was under 1%)

SMILES: O=C(O)COc1ccc(Cl)cc1Cl [2,4-dichlorophenoxyacetic acid]
- Fluorescens [1, 3]: − (the number of the cells having a higher fluorescence than the control was under 1%)
- Fluorescence [2, 4]: − (the number of the cells having a higher fluorescence than the control was under 1%)

SMILES: Oc1cc(Cl)c(Cl)cc1Cl [(6), 2,4,5-trichlorophenol]
- Fluorescens [1]: − (key: −: the number of the cells having a higher fluorescence than the control was under 1%; +: between 1% and 2%; ++: 2% or more)
- Fluorescence [2]: ++ (key: −: the number of the cells having a higher fluorescence than the control was under 1%; +: between 1% and 2%; ++: 2% or more)

SMILES: CCCCCCCCCc1ccc(O)cc1 [p-nonylphenol]
- Fluorescens [1, 3]: − (the number of the cells having a higher fluorescence than the control was under 1%)
- Fluorescence [2, 4]: ++ (2% or more)

SMILES: C[n+]1ccc(-c2cc[n+](C)cc2)cc1 [paraquat]
- Fluorescens [1, 3]: − (the number of the cells having a higher fluorescence than the control was under 1%)
- Fluorescence [2, 4]: − (the number of the cells having a higher fluorescence than the control was under 1%)

SMILES: CC(C)(c1ccc(O)cc1)c1ccc(O)cc1 [bisphenol-A]
- Fluorescens [1, 3]: − (the number of the cells having a higher fluorescence than the control was under 1%)
- Fluorescence [2, 4]: − (the number of the cells having a higher fluorescence than the control was under 1%)

From US20050112573A1, “Method of detecting toxic substance” (priority 2001, published 2005)
